According to PMC11995724, “Antibiotic target discovery by integrated phenotypic and activity-based profiling of electrophilic fragments” (Cell chemical biology, 2025):
Screen size: about 3,200 compounds; about 110 (3.4%) showed an effect of 50% or more. Some of the results follow.

These compounds were tested on T1, V. cholerae SAD30. Conditions: relative growth, OD600, LB; 25 µM; inhibitor.
T1 construct: SAD30
Parameters: species or system S. aureus MSSA476 (TSB) or V. cholerae SAD30 (LB); 384-well bacterial growth screen at 25 uM, OD600 relative to DMSO control

Structure (SMILES)	% of control remaining [%]
CC(Cl)C(=O)NCCn1cccc1 (centres unmarked) [7-G21, 2-chloro-N-[2-(1H-pyrrol-1-yl)ethyl]propanamide]	84.3218
C=CC(=O)NC12CC3(C)CC(C)(CC(O)(C3)C1)C2 [1-K17, N-(3-hydroxy-5,7-dimethyladamantan-1-yl)prop-2-enamide]	86.0987
C=CC(=O)N1CCCn2nc(CO)cc2C1 [3-M10, 1-[2-(hydroxymethyl)-4H,5H,6H,7H,8H-pyrazolo[1,5-a][1,4]diazepin-5-yl]prop-2-en-1-one]	96.1478
C=CC(=O)NCc1ccc(-c2noc(C)n2)cc1 [3-P22, N-{[4-(5-methyl-1,2,4-oxadiazol-3-yl)phenyl]methyl}prop-2-enamide]	119.79
N#CC(=Cc1ccco1)C(=O)Nc1cccc(Cn2cccn2)c1 [8-I20, 2-cyano-3-(furan-2-yl)-N-{3-[(1H-pyrazol-1-yl)methyl]phenyl}prop-2-enamide]	69.4086
Cc1noc(C)c1COC1CCN(C(=O)C(C)Cl)C1 (centres unmarked) [7-O14, 2-chloro-1-{3-[(3,5-dimethyl-1,2-oxazol-4-yl)methoxy]pyrrolidin-1-yl}propan-1-one]	78.3744
CSc1ccc(C=C(C#N)C(=O)N2CCCC2)cc1 [8-I11, 3-[4-(methylsulfanyl)phenyl]-2-(pyrrolidine-1-carbonyl)prop-2-enenitrile]	67.5051
Cl.O=C(CCl)N1CCN(CC=Cc2ccccc2)CC1 [4-F16, 2-chloro-1-[4-(3-phenylprop-2-en-1-yl)piperazin-1-yl]ethan-1-one hydrochloride]	93.6813
CSc1ccccc1NC(=O)C(C)Cl (centres unmarked) [4-M12, 2-chloro-N-[2-(methylsulfanyl)phenyl]propanamide]	94.8889
O=C(CCl)N1CCCCC1c1nc(-c2ccccn2)cs1 (centres unmarked) [5-G18, 2-chloro-1-{2-[4-(pyridin-2-yl)-1,3-thiazol-2-yl]piperidin-1-yl}ethan-1-one]	93.8111
N#CC(C(=O)CCl)=C1NC(=O)c2ccccc2N1 [10-P14, 4-chloro-3-oxo-2-(4-oxo-1,2,3,4-tetrahydroquinazolin-2-ylidene)butanenitrile]	98.9675
Cc1nc2ccccc2n(CCCN(C)C(=O)CCl)c1=O [6-D04, 2-chloro-N-methyl-N-[3-(3-methyl-2-oxo-1,2-dihydroquinoxalin-1-yl)propyl]acetamide]	95.7058
C=CC(=O)NCc1ccc(C(=O)NC2CC(=O)N(C)C2)cc1 (centres unmarked) [3-N22, N-(1-methyl-5-oxopyrrolidin-3-yl)-4-[(prop-2-enamido)methyl]benzamide]	105.675
COc1cc(C=C(C#N)C(=O)Nc2nccs2)cc(OC)c1 [9-J03, 2-cyano-3-(3,5-dimethoxyphenyl)-N-(1,3-thiazol-2-yl)prop-2-enamide]	99.3202
C=CC(=O)N1CCn2nccc21 [1-P16, 1-{1H,2H,3H-pyrazolo[1,5-a]imidazol-1-yl}prop-2-en-1-one]	119.235
CCC(C)C1CN(Cc2ccc(C)nc2)CCN1C(=O)C(C)Cl (centres unmarked) [7-O16, 1-[2-(butan-2-yl)-4-[(6-methylpyridin-3-yl)methyl]piperazin-1-yl]-2-chloropropan-1-one]	70.9731
C=CC(=O)NCc1cccc(N2C(=O)NC3(CCCC3)C2=O)c1 [2-M11, N-[(3-{2,4-dioxo-1,3-diazaspiro[4.4]nonan-3-yl}phenyl)methyl]prop-2-enamide]	88.1887
COc1cc([N+](=O)[O-])ccc1NC(=O)C(C)Cl (centres unmarked) [4-K12, 2-chloro-N-(2-methoxy-4-nitrophenyl)propanamide]	93.5087
C=CC(=O)NCc1ccc(-n2ccc(C3CC3)n2)cc1 [2-B03, N-{[4-(3-cyclopropyl-1H-pyrazol-1-yl)phenyl]methyl}prop-2-enamide]	104.246
C=CC(=O)N1CSCC1C(=O)NCC1CC1 (centres unmarked) [1-P17, N-(cyclopropylmethyl)-3-(prop-2-enoyl)-1,3-thiazolidine-4-carboxamide]	100.299
CC(Cl)C(=O)Nc1cc(C(F)(F)F)ccc1Cl (centres unmarked) [4-N15, 2-chloro-N-[2-chloro-5-(trifluoromethyl)phenyl]propanamide]	99.8922
CC(Cl)C(=O)N1CCCCC1c1nc(-c2ncccn2)no1 (centres unmarked) [7-D15, 2-chloro-1-{2-[3-(pyrimidin-2-yl)-1,2,4-oxadiazol-5-yl]piperidin-1-yl}propan-1-one]	78.3744
Cc1nn(C)c(C)c1C=C(C#N)C(=O)Nc1cccc(Cl)c1C [9-M20, N-(3-chloro-2-methylphenyl)-2-cyano-3-(1,3,5-trimethyl-1H-pyrazol-4-yl)prop-2-enamide]	87.7634
COc1ccc(C=C(C#N)C(=O)Nc2ccccc2[N+](=O)[O-])cc1 [8-G03, 2-cyano-3-(4-methoxyphenyl)-N-(2-nitrophenyl)prop-2-enamide]	85.9959
C=CC(=O)Nc1ncccn1 [1-M12, N-(pyrimidin-2-yl)prop-2-enamide]	88.4903
O=C(CCl)Nc1cc(S(=O)(=O)N2CCCC2)ccc1Cl [6-G14, 2-chloro-N-[2-chloro-5-(pyrrolidine-1-sulfonyl)phenyl]acetamide]	86.757
C=CC(=O)NCc1ccnn1C1CCCC1 [3-H21, N-[(1-cyclopentyl-1H-pyrazol-5-yl)methyl]prop-2-enamide]	94.7363
C=CC(=O)N1CCCCC1 [1-C12, 1-(piperidin-1-yl)prop-2-en-1-one]	86.3976
C=CC(=O)Nc1cnn(CC(F)(F)F)c1 [1-A11, N-[1-(2,2,2-trifluoroethyl)-1H-pyrazol-4-yl]prop-2-enamide]	94.0209
